# Test results reported in PubChem BioAssay AID493208 (National Center for Advancing Translational Sciences (NCATS), 2011).
# Out of some 44,000 compounds screened, about 340 (0.77%) were called active. Inconclusive results (about 5%) are left out. The call rests on the fitted dose curve; in most records, active means well fitted inhibition curve with a large enough effect; inconclusive means small, poorly fitted or top-dose-only effect; inactive means flat fitted curve, though single readings scatter. Some of the results follow.
# Test: Acumen qHTS Assay for Inhibitors of the mTORC1 Signaling Pathway in MEF (Tsc2-/-, p53-/-) Cells: Sytravon; further: nearly all actives have a fitted effect of over 50% in size;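 on activity change, negative = inhibition: plate controls were DMSO for no effect and rapamycin for full effect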
# Settings: phospho-rpS6 immunofluorescence/PI, 24 h; series mostly up to 38.3 µM; activity change, negative = inhibition: at the top concentration
# How it was run: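 Plate MEFs (Tsc2-/-, p53-/-, empty vector) in DMEM/10% FBS; after 24 h add compound, incubate 24 h at 37 degree Celsius; fix in PFA/TX-100, block, stain phospho-rpS6 and 10 uM PI; scan at 488 nm; report % positive cells.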
# Potency means the concentration at half of the fitted maximal effect.
SMILES,"activity change, negative = inhibition",Potency
Cc1cn(C)c(CC(=O)N2CCN(c3ccc(F)cc3)CC2)c1C(=O)O,inactive: -3.24%,
O=C(NCc1ccc2c(c1)CCN2C(=O)c1ccccc1)c1ccc(Br)o1,inactive: -0.155%,
CCN(C(=O)Cn1cc(C(=O)c2ccc(F)cc2)c(=O)c2ccc(C)nc21)c1cccc(C)c1,inactive: -4.83%,
CC1CCCCN1c1nc(-c2ccc(C(C)(C)C)cc2)nc2ccccc12 (centres undefined),inactive: -11.1%,
COc1cc(NC(=O)Cn2c(=O)nc(-c3ccccc3F)c3cc(Cl)ccc32)cc(OC)c1,inactive: 0%,
CCOC(=O)c1cc(OC(=O)c2cccc(Cl)c2)n(-c2ccccc2)n1,inactive: -0.983%,
Cc1ccc(C)c(N2CCN(C(=O)Cn3c(C)c4cnn(-c5ccccc5)c(=O)c4c3C)CC2)c1,inactive: -5.26%,
COC(=O)c1ccccc1NC(=O)Cn1nc(C(F)(F)F)c2c1CCCC2,inactive: -3.1%,
CCOc1ccc(C(=O)N2CCC(c3ccncc3)CC2)cc1,inactive: -11.4%,
CC(C)c1nc2ccc(C(=O)NCCCN3CCN(c4ccc(F)cc4)CC3)cc2o1,inactive: 0.599%,
CCC1CN(C(=O)N2CCC(C(=O)NCc3ccco3)CC2)c2cc(C)ccc2O1 (centres undefined),inactive: 10.6%,
COc1cccc(-n2c(-c3ccc(C)cc3)cc3c2CC(C)(C)CC3=O)c1,inactive: -14.9%,
CCCCOc1ccc(CNC(=O)c2cnc3sc(N4CCC(C)CC4)nn3c2=O)cc1,inactive: -5.23%,
Cc1ccc2c(c1)CC(C)N2S(=O)(=O)c1nnc(NC(=O)CC(C)C)s1 (centres undefined),inactive: -2.65%,
Cc1cc(C)c2c(CC(=O)Nc3c(C(=O)c4ccc(F)cc4)oc4ccccc34)coc2c1,inactive: -3.91%,
COc1ccc(OC)c(NC(=O)CCc2c(C)nc3c(c(C)nn3C(C)(C)C)c2C)c1,inactive: -11.2%,
Cc1c(NC(=O)c2ccc(Cl)cc2)cc(C(C)C)c(O)c1S(=O)(=O)c1ccccc1,inactive: 6.81%,
COc1ccccc1C(=O)Nc1ccc(OCc2cc(=O)n3cccc(C)c3n2)cc1,inactive: -24.4%,
Cc1cc(=O)n(Cc2ccccc2Cl)c2c1c(C)nn2-c1ccccc1,inactive: -8.57%,
Cc1cc(NC(=O)CSc2nc3c([nH]c4ccccc43)c(=O)n2-c2ccc(Cl)cc2)no1,inactive: -0.122%,
COc1ccccc1CNC(=O)CCS(=O)(=O)c1ccc2c(c1)CC(C)N2C(=O)C1CC1 (centres undefined),inactive: 1.31%,
COc1ccccc1CNC(=O)CCc1c(C)nn(-c2ccc(N3CCCC3)nn2)c1C,inactive: -7.99%,
COc1ccc(CC(=O)Nc2nnc3n2CCS3)cc1,inactive: 1.7%,
O=C(CC1Oc2ccccc2NC1=O)NCc1ccc(F)cc1 (centres undefined),inactive: -17.9%,

SMILES,"activity change, negative = inhibition",Potency
Cc1ccc(CSc2nc3ccsc3c(=O)n2CCC(C)C)cc1,inactive: -6.97%,
O=c1oc2ccc(F)cc2cc1-c1nc(-c2cccs2)no1,inactive: 4.88%,
CCN1CCN(C(=O)c2ccc3c(c2)N(Cc2ccc(F)cc2)C(=O)c2ccccc2S3(=O)=O)CC1,inactive: -6%,
Cc1cccc(OCc2nnc(-c3ccccc3)o2)c1,inactive: -6.91%,
CCOc1ccc(NC(=O)c2oc(=O)c3ccccc3c2-c2ccc(C)cc2)cc1,inactive: 1.11%,
CCn1c2c(c(=O)n3ncc(C(=O)Nc4ccc(F)cc4Cl)c13)CN(Cc1ccc(OC)cc1)CC2,inactive: -0.16%,
CCOc1ccc(-n2c(Cc3ccccc3)nnc2SCc2nc(-c3cccs3)no2)cc1,inactive: 3.3%,
Cc1ccc(-c2nc(-c3cc4cccc(OCc5cccc(F)c5)c4oc3=O)no2)cc1,inactive: -1.77%,
COc1cccc(NC(=O)c2sc3nc(C)c(C(=O)Nc4ccc(C)cc4C)c(-c4cccs4)c3c2N)c1,inactive: 2.36%,
O=C(Nc1ccc(Br)cc1)c1ccc(Cl)c(S(=O)(=O)N2CCCCCC2)c1,inactive: 9.07%,
Cc1cc(C)cc(NC(=O)C2CCN(S(=O)(=O)c3c(C)noc3/C=C/c3ccco3)CC2)c1,inactive: -12%,
Cc1ccn2c(Nc3c(C)cccc3C)c(-c3ccc(Cl)s3)nc2c1,inactive: -28.1%,
CCCCN(CCCC)C1=C(C(=O)c2ccccc2)N(CC)S(=O)(=O)c2ccccc21,inactive: 15.9%,
COC(=O)CN1C(=O)C(C)(C)c2cc(S(=O)(=O)NCc3ccc(Cl)cc3)ccc21,inactive: -0.967%,
COc1ccccc1Nc1c2c(nc3ccc(NC(=O)/C=C/c4cc(OC)c(OC)c(OC)c4)cc13)CCCC2,,active: 3.29 µM
CCCCCc1ccc(-c2ccc(C(=O)Oc3ccc(C(=O)OC)cc3)cc2)nc1,inactive: -1.15%,
COc1ccc(CNc2nc(-c3ccc(Cl)cc3)nn2C(=O)c2ccccc2)cc1,inactive: -3.64%,
COc1ccccc1CNC(=O)c1ccc(CSc2nc3ccncc3n2Cc2ccccc2C)cc1,inactive: -0.139%,
Cc1ccc(-n2ncc(C(=O)N3CCN(c4ncccn4)CC3)c2C2CCN(C(=O)OC(C)(C)C)CC2)cc1,inactive: 3.87%,
Cc1cc(C)cc(N2C(=O)CS(=O)(=O)C23C(=O)N(C)c2ccccc23)c1 (centres undefined),inactive: 0.0894%,
Cc1nc(-c2ccc(S(=O)(=O)N(C)Cc3ccccc3)cc2)co1,inactive: -14.3%,
CCN(CC)C(=O)CSc1cn(CC(=O)N2CCCCCC2)c2ccccc12,inactive: -4.68%,
Cc1ccc(NC(=O)C2CCN(c3nc4ccccc4nc3C(F)(F)F)CC2)cc1C,inactive: 0%,
CCn1c2ccccc2c2nnc(N3CCN(c4ccc(OC)cc4)CC3)nc21,inactive: -16.7%,

SMILES,"activity change, negative = inhibition",Potency
COc1ccc(-c2cc(C(F)(F)F)nc(SCCC(=O)Nc3ccc(O)cc3)n2)cc1,inactive: 9.99%,
CCOC(=O)Cn1nc(C)c(NC(=O)COc2ccc(C)c(C)c2)c1C,inactive: -0.89%,
CCCN(CCC)S(=O)(=O)c1ccc(N2CCCCS2(=O)=O)cc1,inactive: 0%,
CCOc1ccc(-n2cc(-c3ccccc3)c3c(NCc4ccc(F)cc4)ncnc32)cc1,inactive: 0.539%,
Fc1ccc([C@@H]2Nc3ccccc3[C@@H]3C=CC[C@@H]32)cc1,inactive: -21.1%,
O=C(Cn1cc(S(=O)(=O)c2ccc(Cl)cc2)c(=O)c2ccccc21)Nc1ccc2c(c1)OCO2,inactive: -2.55%,
Cc1ccc(C)c(NC(=O)CSc2ncc3c(n2)-c2ccccc2N(Cc2ccccc2C)S3(=O)=O)c1,inactive: -8.19%,
Cc1ccc(C)c(S(=O)(=O)Nc2ccc3c(c2)CCCN3C(=O)c2cccs2)c1,inactive: 8.44%,
COc1ccc(CNS(=O)(=O)c2ccc3c(c2)NC(=O)C(C)C(=O)N3)cc1 (centres undefined),inactive: -0.68%,
Cc1nnc(N2CCC(C(=O)N3CCCCC3)CC2)c2nn(-c3ccccc3)c(C)c12,inactive: -7.9%,
COc1ccc(C)cc1NS(=O)(=O)c1ccc(-c2cnc(C3CC3)o2)cc1,inactive: -0.198%,
Cc1ccc(C)c(Nc2ncnc3c2cnn3-c2ccc(F)cc2)c1,inactive: 8.13%,
O=C(NCCc1ccccc1)c1cc(-c2cccc(Cl)c2)on1,inactive: -1.61%,
COc1ccc(CNc2n[nH]c(-c3ccco3)n2)cc1OC,inactive: -0.298%,
COc1cc(NC(=O)Cn2c(=O)n(Cc3ccccc3Cl)c(=O)c3cc(OC)c(OC)cc32)cc(OC)c1,inactive: 0.247%,
CCCc1c(C(=O)OCC)nnc2c(-c3ccccc3)c(C)nn12,inactive: -4.84%,
COc1ccc(CCN2C(=O)N(c3ccc(F)cc3)C(=O)C2CC(=O)Nc2ccccc2)cc1OC (centres undefined),inactive: 10.5%,
COc1ccc(C2c3c(n(C)c4ccccc34)C(=O)N2CC(=O)Nc2ccccc2Cl)cc1 (centres undefined),inactive: -3.84%,
COc1cc(NC(=O)c2cc3nc(-c4ccc(C)cc4)cc(C(F)(F)F)n3n2)cc(OC)c1OC,inactive: 6.15%,
CCc1ccc(NC(=O)c2cc(S(=O)(=O)N3CCCCC3)c[nH]2)cc1,inactive: 0%,
O=S(=O)(Nc1ccc(F)cc1F)c1ccc(Br)s1,inactive: -1.02%,
Cc1ccc(CNC(=O)c2nnn(Cc3ccc(F)cc3)c2N)cc1,inactive: -10.2%,
COc1ccc(OCc2ccc(-c3nc(C#N)c(N4CCC(C(N)=O)CC4)o3)o2)cc1,inactive: 0.199%,
CC(=O)c1cccc(NC(=O)Cn2c(=O)oc3cc(S(=O)(=O)NCc4ccccc4)ccc32)c1,inactive: -4.63%,

SMILES,"activity change, negative = inhibition",Potency
COc1ccc(CCNC(=O)c2cnc3sc(N4CCOCC4)nn3c2=O)cc1OC,inactive: 1.5%,
CCn1c2c(c(=O)n3ncc(C(=O)Nc4ccc(OC(F)(F)F)cc4)c13)CN(Cc1ccc(OC)cc1)CC2,inactive: -0.49%,
COc1ccc(CCNC(=O)c2c[nH]n3c(=O)c(Cc4ccccc4Cl)c(C)nc23)cc1OC,inactive: -26.6%,
Cc1ccc2c(c1)cc1c(=O)n(CC(=O)NC(C)CCc3ccccc3)nc(C)n12 (centres undefined),inactive: -2.71%,
O=C(NCc1cccs1)c1ccc(CSc2nc3cccnc3n2Cc2ccc(F)cc2)cc1,inactive: 0.0169%,
Cn1c2c(c(=O)n(C)c1=O)C(c1ccccc1[N+](=O)[O-])CC(=O)N2 (centres undefined),inactive: -3.54%,
COc1ccc(-c2nn(-c3ccc(F)cc3)c3c2cnc2cc4c(cc23)OCO4)cc1,inactive: 10.2%,
COc1ccccc1CNc1ccc(-c2nc(-c3ccccc3C)no2)cc1[N+](=O)[O-],inactive: 3.4%,
CCc1ccccc1NC(=O)CSc1nc2n[nH]c(C)c2c(=N)n1-c1cccc(C)c1,inactive: -6.72%,
CCOc1nc(NC(=O)NS(=O)(=O)Oc2cccc(Cl)c2)nc(-c2ccccc2)n1,inactive: -13.6%,
Cc1cc(C)cc(NC(=O)C2CCN(C(=O)c3cnn(-c4ccccc4)c3-n3cccc3)CC2)c1,inactive: -3.27%,
CC1CCn2c(nc3cc(C(=O)NCc4ccc(F)cc4)ccc32)C1 (centres undefined),inactive: 9.92%,
O=C(Nc1ccc(F)c(F)c1)c1cc(S(=O)(=O)NCc2ccc3c(c2)OCO3)ccc1F,inactive: -10.9%,
CCOC(=O)c1nn2c(C(F)(F)F)cc(-c3ccc(C)cc3)nc2c1Cl,inactive: -16.1%,
CCCCC(=O)Nc1nnc(SCc2cc(=O)n3cc(C)ccc3n2)s1,inactive: 6.58%,
COc1ccc(-c2c(C#N)c(SCC(=O)Nc3ccc(C)cc3)nc(C)c2C(=O)Nc2ccccc2)cc1,inactive: -2.51%,
Cc1ccc(CNC(=O)CSc2nc(=O)n(Cc3ccco3)c3c2CCC3)cc1,inactive: -5.89%,
COc1ccc(C2=NC3(CCCCCC3)N(CC(=O)Nc3cccc(Cl)c3)C2=O)cc1,inactive: -0.518%,
COc1cccc(CNC(=O)CN2CCCN(Cc3ccccc3)S2(=O)=O)c1,inactive: 3.27%,
Cc1ccn2c(Nc3ccc4c(c3)OCO4)c(-c3ccc(Cl)cc3)nc2c1,inactive: -16.7%,
COc1cccc(NC(=O)Cn2c(=O)ccc3cc(S(=O)(=O)N4CCC(C)CC4)ccc32)c1,inactive: 1.87%,
CCSc1nc2c([nH]c3ccccc32)c(=O)n1-c1cccc(OC)c1,inactive: -3.02%,
